About 200 (0.062%) of roughly 320,000 compounds were called active. Inconclusive results, whose numbers are uncertain, are shown with a selection of clear calls. Calls come from the whole dose curve; as a rule, active = well fitted activation curve with a large enough effect; inconclusive = small, poorly fitted or top-dose-only effect; inactive = no such curve, though single readings can be large or run the other way. Potencies of inconclusive entries are left out as doubtful fits.
Test: qHTS assay for re-activators of p53 using a Luc reporter; note: nearly all actives have a fitted effect of over 45% in size; for activity change, positive = activation: % of control where 0% means no effect
Settings: H1299 p53-A138V BP100-luciferase reporter, luminescence, 24 h; series mostly up to 92.2 µM; activity change, positive = activation: at the top concentration
Summary of the method: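 H1299 (p53-null), stable ts p53-A138V + BP100-Luc; 1000 cells/well, Opti-MEM/10% FBS; cpd 4 pt, 1:5; 24 h, 37 deg C, 5% CO2; detection reagent 10 min RT; luminescence.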
Potency is the fitted concentration of half-maximal effect; tags give direction and shape of the fitted curve.

**Q.** For `CN1CCc2c(sc3c2C(=O)NC(c2ccccc2)N3)C1` (stereo unspecified), which Potency is on record?
**A.** inconclusive [activator, partial curve, poor fit]

**Q.** For `O=C1OC(C(=O)Nc2ccccc2)Cc2ccccc21` (stereo unspecified), which Potency is on record?
**A.** inconclusive [activator, full curve, poor fit]

**Q.** For `Cc1ccc2[nH]c(-c3cccc(N)c3)cc2c1`, which Potency is on record?
**A.** inconclusive [activator, full curve]

**Q.** For `CC(=O)Nc1nc2ccccc2n1Cc1ccccc1C`, which Potency is on record?
**A.** inconclusive [activator, single point]

**Q.** For `Cc1nc(C(F)(F)F)ccc1C(=O)NCC(O)c1ccccc1` (stereo unspecified), which Potency is on record?
**A.** inconclusive [activator, full curve, poor fit]

**Q.** With `CCOC1=NN(c2ncc(C(F)(F)F)cc2Cl)C(=O)C1` as the molecule, how does the “activity change, positive = activation” value read?
**A.** inactive: -0.426%

**Q.** With `C=CCn1c(Cc2nc3ccc(Cl)cc3[nH]2)n[nH]c1=S` as the molecule, how does the Potency read?
**A.** inconclusive [activator, partial curve, poor fit]

**Q.** Which Potency does the source give for `CN(C)CCN(C(=O)CCS(=O)(=O)c1ccccc1)c1nc2cc3c(cc2s1)OCO3` here?
**A.** inconclusive [activator, single point]

**Q.** Which Potency does the source give for `Cc1ccc(NC(=O)ON=C2CCCC2)cc1` here?
**A.** inconclusive [activator, full curve, poor fit]

**Q.** Which “activity change, positive = activation” value does the source give for `Cc1nc2ccccc2nc1N1CCCC1` here?
**A.** inactive: 4.76%

**Q.** For `O=C(CCl)NNc1cccc(Cl)n1`, which Potency is on record?
**A.** inconclusive [activator, single point]

**Q.** With `COc1ccc(NC(=O)c2ccc(OC)cc2)cc1` as the molecule, how does the Potency read?
**A.** inconclusive [activator, partial curve, poor fit]

**Q.** Which Potency does the source give for `C/C(=N\NC(=O)c1ccc(O)cc1O)c1cccnc1` here?
**A.** inconclusive [activator, partial curve, poor fit]

**Q.** For `Cc1cccc(NC(=O)c2ccc3c(c2)OCCO3)c1`, which “activity change, positive = activation” value is on record?
**A.** inactive: 17.5%

**Q.** With `COC(=O)c1ccccc1OCCCOc1ccc(C)cc1OC` as the molecule, how does the Potency read?
**A.** inconclusive [activator, full curve, poor fit]

**Q.** With `COc1ccc2c(c1)CC/C(=C/c1ccccn1)C2=O` as the molecule, how does the Potency read?
**A.** inconclusive [activator, partial curve, poor fit]

**Q.** For `Cc1noc(NS(=O)(=O)c2ccc(NC(=O)/C=C/c3ccc(Br)cc3)cc2)c1C`, which “activity change, positive = activation” value is on record?
**A.** inactive: -0.868%

**Q.** With `O=C(NC(=S)Nc1ccccn1)c1cncc(Br)c1` as the molecule, how does the Potency read?
**A.** inconclusive [activator, full curve, poor fit]

**Q.** For `O=C(c1cnccn1)N1CCN(c2ccccc2F)CC1`, which Potency is on record?
**A.** inconclusive [activator, full curve, poor fit]

**Q.** With `CC(C)C(C)NC(=O)COC(=O)/C=C/c1ccc(S(=O)(=O)N2CCc3ccccc32)cc1` (stereo unspecified) as the molecule, how does the Potency read?
**A.** inconclusive [activator, single point]

**Q.** With `COc1ccc(/C=C/C(=O)c2ccc3c(c2)OCCO3)cc1[N+](=O)[O-]` as the molecule, how does the “activity change, positive = activation” value read?
**A.** inactive: 4.09%

**Q.** For `Cc1ccccc1OCCNC(=O)c1ccc2ccccc2n1`, which Potency is on record?
**A.** inconclusive [activator, partial curve, poor fit]

**Q.** With `O=C(CCC(NC(=O)OCc1ccccc1)C(=O)OCc1ccccc1)NCC(=O)OCc1ccccc1` (stereo unspecified) as the molecule, how does the Potency read?
**A.** inconclusive [activator, single point]

**Q.** Which Potency does the source give for `CN(C)c1ccc(/C=C2\CCC/C(=C\c3ccccc3)C2=O)cc1` here?
**A.** inconclusive [activator, partial curve, poor fit]

**Q.** With `COc1ccccc1C1=CC(=O)CC(C)(C)C1=O` as the molecule, how does the “activity change, positive = activation” value read?
**A.** inactive: 4.73%

**Q.** With `Cc1ccc(/C=C2\SC(=S)N(NS(=O)(=O)c3ccc(C)cc3)C2=O)cc1` as the molecule, how does the Potency read?
**A.** inconclusive [activator, single point]

**Q.** For `C(=N\N1CCN(C(c2ccccc2)c2ccccc2)CC1)/c1ccc2c(c1)OCO2`, which “activity change, positive = activation” value is on record?
**A.** inactive: -0.313%

**Q.** With `CCCNC(=O)C1CC(=O)N(c2ccc(OCc3ccc(F)cc3)cc2)C1` (stereo unspecified) as the molecule, how does the Potency read?
**A.** inconclusive [activator, partial curve, poor fit]

**Q.** Which “activity change, positive = activation” value does the source give for `Cc1ccc(S(=O)(=O)N2CCC(C(=O)N/N=C/c3cccn3C)CC2)cc1` here?
**A.** inactive: -6.56%

**Q.** Which “activity change, positive = activation” value does the source give for `Cc1c(Cl)cccc1NC(=O)c1cccc(OC(F)F)c1` here?
**A.** inactive: 12.5%

**Q.** For `CN(C)S(=O)(=O)c1cccc(COC(=O)CCNC(=O)c2ccc([N+](=O)[O-])cc2)c1`, which Potency is on record?
**A.** inconclusive [activator, single point]

**Q.** Which Potency does the source give for `c1nc(NCCN2CCOCC2)c2c3c(sc2n1)CCCCC3` here?
**A.** inconclusive [activator, partial curve, poor fit]

**Q.** For `Cc1c(NCc2nc3ccccc3[nH]2)c(=O)n(-c2ccccc2)n1C`, which Potency is on record?
**A.** inconclusive [activator, single point]

**Q.** Which “activity change, positive = activation” value does the source give for `Cc1ccc(NC(=O)CSc2nnc(COc3ccc(C#N)cc3)n2-c2ccccc2)cc1C` here?
**A.** inactive: -10.1%

**Q.** With `CN(c1ccc(C(=O)NCCSCc2ccccc2)cc1)S(=O)(=O)c1ccccc1` as the molecule, how does the “activity change, positive = activation” value read?
**A.** inactive: -2.99%

**Q.** Which Potency does the source give for `O=C(Nc1ccc(F)cc1)c1ccccc1NC(=O)C1CC=CCC1C(=O)O` (stereo unspecified) here?
**A.** inconclusive [activator, single point]

**Q.** With `CN(CC(=O)Nc1ccccc1Cl)C(=O)Cn1nnc(-c2ccc(F)cc2)n1` as the molecule, how does the “activity change, positive = activation” value read?
**A.** inactive: -4.59%

**Q.** For `Oc1c(C=Nc2cccnc2)sc2ccccc12`, which Potency is on record?
**A.** inconclusive [activator, partial curve, poor fit]

**Q.** With `Cc1ccc(-n2ncc3c(=O)n(CC#N)cnc32)cc1C` as the molecule, how does the Potency read?
**A.** inconclusive [activator, single point]

**Q.** For `Cc1ccc(-c2cc(C(=O)N3CCCc4ccccc43)no2)cc1`, which Potency is on record?
**A.** inconclusive [activator, single point]

**Q.** Which Potency does the source give for `O=C(NCc1cccs1)c1noc2c1CCCCC2` here?
**A.** inconclusive [activator, partial curve, poor fit]

**Q.** For `CCCCOc1ccc(-c2nnc(-c3ccncc3)o2)cc1`, which Potency is on record?
**A.** inconclusive [activator, partial curve, poor fit]

**Q.** With `CN1/C(=C\C(=O)c2cccnc2)Sc2ccccc21` as the molecule, how does the “activity change, positive = activation” value read?
**A.** inactive: 0.115%

**Q.** With `CCCC(=O)NC1CCCc2c1cnn2-c1ccc(C)c(C)c1` (stereo unspecified) as the molecule, how does the “activity change, positive = activation” value read?
**A.** inactive: -4.39%

**Q.** For `Fc1ccc(OCc2nc(-c3ccncc3)n[nH]2)cc1`, which “activity change, positive = activation” value is on record?
**A.** inactive: 0.595%

**Q.** Which Potency does the source give for `Cc1ccc2nc(-c3ccc(-c4ccccn4)s3)cn2c1` here?
**A.** inconclusive [activator, partial curve, poor fit]

**Q.** With `CC(C)CC(=O)NC(C)C(c1cccs1)N1CCOCC1` (stereo unspecified) as the molecule, how does the “activity change, positive = activation” value read?
**A.** inactive: 1.09%

**Q.** For `Cc1ccc(C)c(N2CCN(C(=O)CCc3nc(-c4ccccc4C(F)(F)F)no3)CC2)c1`, which Potency is on record?
**A.** inconclusive [activator, partial curve, poor fit]

**Q.** Which “activity change, positive = activation” value does the source give for `CC(=O)C1=C(O)C(=O)N(c2ccc(Br)cn2)C1c1ccccc1[N+](=O)[O-]` (stereo unspecified) here?
**A.** inactive: -0.89%

**Q.** With `Nc1ccc(Nc2nc(-c3ccncc3)cs2)cc1` as the molecule, how does the Potency read?
**A.** inconclusive [activator, partial curve, poor fit]

**Q.** With `CCCC(=O)OCCNC(=O)c1cc2ccccc2oc1=O` as the molecule, how does the Potency read?
**A.** inconclusive [activator, single point]

**Q.** Which Potency does the source give for `O=C(NCCCN1CCOCC1)c1ccc(NS(=O)(=O)c2ccccc2)cc1` here?
**A.** inconclusive [activator, partial curve, poor fit]

**Q.** For `Oc1cccc(Nc2nc(NCC3CCCO3)c3ccccc3n2)c1` (stereo unspecified), which Potency is on record?
**A.** inconclusive [activator, single point]

**Q.** For `Cc1ccc(C(=O)CC(=O)c2ccc(C(C)(C)C)cc2)cc1`, which “activity change, positive = activation” value is on record?
**A.** inactive: 5.81%

**Q.** With `CCc1cc(C(=O)Nc2ccccc2)cs1` as the molecule, how does the Potency read?
**A.** inconclusive [activator, full curve, poor fit]

**Q.** For `Cc1cc(=O)n2[nH]c(-c3ccc(Cl)cc3)cc2n1`, which Potency is on record?
**A.** inconclusive [activator, partial curve, poor fit]

**Q.** Which “activity change, positive = activation” value does the source give for `Oc1ccc2ccccc2c1C=NCc1ccccc1` here?
**A.** inactive: 0.898%

**Q.** With `CN1CCN(S(=O)(=O)c2cccc(C(=O)Nc3sc4c(c3-c3nc5ccccc5[nH]3)CCCC4)c2)CC1` as the molecule, how does the “activity change, positive = activation” value read?
**A.** inactive: 17.5%

**Q.** With `O=C(CN1CC(=O)Oc2ccccc21)OCC(=O)c1ccccc1` as the molecule, how does the Potency read?
**A.** inconclusive [activator, partial curve, poor fit]

**Q.** For `O=C1/C(=C/c2cccs2)SC(=S)N1CCC(=O)N1CCCCC1CCO` (stereo unspecified), which Potency is on record?
**A.** inconclusive [activator, partial curve, poor fit]

**Q.** Which Potency does the source give for `O=C(CCCCCn1c(=S)[nH]c2cc3c(cc2c1=O)OCO3)N1CCN(Cc2ccccc2)CC1` here?
**A.** inconclusive [activator, partial curve, poor fit]

**Q.** Which Potency does the source give for `CC(C)CNC(=O)c1cc(-c2ccc(Br)cc2)on1` here?
**A.** inconclusive [activator, partial curve, poor fit]

**Q.** With `CC1CCN(C(=O)COC(=O)CNC(=O)c2ccccc2F)CC1` as the molecule, how does the “activity change, positive = activation” value read?
**A.** inactive: 0.989%

**Q.** With `CC(Sc1nnc(Cc2ccccc2)o1)C(=O)Nc1ccccc1[N+](=O)[O-]` (stereo unspecified) as the molecule, how does the Potency read?
**A.** inconclusive [activator, single point]

**Q.** With `Cc1cccc(OCCCC(=O)Nc2nccs2)c1C` as the molecule, how does the “activity change, positive = activation” value read?
**A.** inactive: -1.8%

**Q.** With `CCN(CC)S(=O)(=O)c1ccc(C(=O)C(C#N)c2ccccn2)cc1` (stereo unspecified) as the molecule, how does the “activity change, positive = activation” value read?
**A.** inactive: 4.77%

**Q.** With `CCOCCCN(C)C1CCN(C(=O)c2oc3ccccc3c2NC(=O)Cc2ccc([N+](=O)[O-])cc2)CC1` as the molecule, how does the Potency read?
**A.** inconclusive [activator, partial curve, poor fit]

**Q.** Which “activity change, positive = activation” value does the source give for `O=C1CN(C(=O)CSc2nnnn2-c2ccc(Cl)cc2)c2ccccc2N1` here?
**A.** inactive: -7.76%

**Q.** Which “activity change, positive = activation” value does the source give for `O=C(Nc1ccc(F)cc1)c1cccc(N2C(=O)C3C4C=CC(C5CC45)C3C2=O)c1` (stereo unspecified) here?
**A.** inactive: 2.85%

**Q.** For `COc1ccc(-c2cc(C(=O)Nc3cccnc3)no2)cc1OC`, which Potency is on record?
**A.** inconclusive [activator, partial curve, poor fit]

**Q.** With `COc1ccc(NC(=S)Nc2cccc3cnccc23)cc1` as the molecule, how does the “activity change, positive = activation” value read?
**A.** inactive: -1.21%
